In PMC7819943, “Rice protein-binding microarrays: a tool to detect cis-acting elements near promoter regions in rice”:
The other results are listed elsewhere or left out.

target: T1, OsWOX13 (Oryza sativa, UniProt Q5QMM3 1-267); test: protein-binding microarray (RPBM); PBS, 2% BSA, 51.3 ng/ul salmon testes DNA, 50 uM zinc acetate, 200 nM TF, 25 C, 1 h; high values mean tight binding; conditions: protein: recombinant; tags: N-terminal polyhistidine and DsRed monomer fusion (pET32a); label: CyDye5-dUTP incorporated in the synthesized complementary strand; 3' TTTTT single-stranded linker to array surface; dsDNA, one strand shown
T1 sequence: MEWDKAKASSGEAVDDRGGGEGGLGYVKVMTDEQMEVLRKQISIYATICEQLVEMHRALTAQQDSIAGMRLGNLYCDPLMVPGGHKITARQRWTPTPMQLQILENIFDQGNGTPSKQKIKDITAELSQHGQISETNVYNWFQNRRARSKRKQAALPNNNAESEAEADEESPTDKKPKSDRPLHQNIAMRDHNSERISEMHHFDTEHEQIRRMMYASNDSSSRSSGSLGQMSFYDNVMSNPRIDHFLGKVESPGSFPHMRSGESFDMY
Summary of the method: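 The binding signal is fluorescence intensity per array feature (arbitrary units). Readings came from an Axon 4000B scanner after a washed, 2% BSA-blocked, double-stranded custom Agilent array had been incubated for 1 h at 25 °C with 200 nM protein and 50 µM zinc acetate. The protein was a Ni–NTA-purified transcription factor fused N-terminally to polyhistidine and DsRed, expressed in E. coli BL21-CodonPlus.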

Q: “AATAAACGGGTTGATGACTTGATGTTAAGAAGACCATGAACGGAGTCACCTAGTGCAG” was tested. Which binding signal did it give?
A: The binding signal was 3290 fluorescence intensity (a.u.).

Q: Which binding signal does the source give for “ACCACTAATCAATCCTGTTCGGTGCATGCTCTCCCGTAACCGGAGTCACCTAGTGCAG” here?
A: The binding signal was 10700 fluorescence intensity (a.u.).

Q: How did the binding signal turn out when “CTTAATTATATGGTTGGGAAAATGCCTTTAATAATCCCTGCGGAGTCACCTAGTGCAG” was run?
A: The binding signal was 38200 fluorescence intensity (a.u.).

Q: Which binding signal does the source give for “CCTTGACGGTAGCGGTGATGGTAACAGAAAATTGGACGGCCGGAGTCACCTAGTGCAG” here?
A: Its binding signal is 3410 fluorescence intensity (a.u.).

Q: “CAAAGCAATTATTGGCAGCGTGATCGGATTGGCGGAAAACCGGAGTCACCTAGTGCAG” was tested. Which binding signal did it give?
A: Its binding signal is 22000 fluorescence intensity (a.u.).

Q: How did the binding signal turn out when “ACTACATGACAGGGAATTGTTGTTCCTTGGTGATCAACCACGGAGTCACCTAGTGCAG” was run?
A: The binding signal was 3360 fluorescence intensity (a.u.).

Q: How did the binding signal turn out when “GCAGGCAATCACACACACATATTTATCACGAGAAAGAGTACGGAGTCACCTAGTGCAG” was run?
A: The binding signal was 8850 fluorescence intensity (a.u.).

Q: How did the binding signal turn out when “AATAACAATTGATTCGTATACAGGGAGCTTGCGCGTTCGACGGAGTCACCTAGTGCAG” was run?
A: Its binding signal is 8370 fluorescence intensity (a.u.).

Q: With “CTCCGGCCAATCACCGCCGCTGTCGTTGCGTTCGCCGGCGCGGAGTCACCTAGTGCAG” as the sequence, how does the binding signal read?
A: Its binding signal is 16700 fluorescence intensity (a.u.).

Q: “CAAACAAATAACAAATTTGCTTTTAACATAAATTCAGGGGCGGAGTCACCTAGTGCAG” was tested. Which binding signal did it give?
A: The binding signal was 5210 fluorescence intensity (a.u.).

Q: For “TTAATTGATCAATAATCACTGTTCCTTCTCAAGTAGTCAACGGAGTCACCTAGTGCAG”, which binding signal is on record?
A: The binding signal was 64600 fluorescence intensity (a.u.).

Q: Which binding signal does the source give for “GGTAATTGTTGATAGATACGATATTACTAATTCTGGTATTCGGAGTCACCTAGTGCAG” here?
A: The binding signal was 40700 fluorescence intensity (a.u.).

Q: “GCATATTATAATATTTTGATTAATGATAAATCGAGTAACACGGAGTCACCTAGTGCAG” was tested. Which binding signal did it give?
A: Its binding signal is 6600 fluorescence intensity (a.u.).

Q: Which binding signal does the source give for “ATATGATTGGAACTAATCCTACCATACCATAACAACTGGACGGAGTCACCTAGTGCAG” here?
A: Its binding signal is 30600 fluorescence intensity (a.u.).

Q: Which binding signal does the source give for “TCTTTACTGATGTATAATAATTAACATTGCAAATAATTTACGGAGTCACCTAGTGCAG” here?
A: The binding signal was 8470 fluorescence intensity (a.u.).

Q: Which binding signal does the source give for “AATCACGGACTAATTAGGCTTAAAAGATTCGTCTCGCGATCGGAGTCACCTAGTGCAG” here?
A: The binding signal was 10700 fluorescence intensity (a.u.).

Q: With “GCCAATGATTGCGACGATATTAGCATGTTATTCCCAAGGTCGGAGTCACCTAGTGCAG” as the sequence, how does the binding signal read?
A: Its binding signal is 50400 fluorescence intensity (a.u.).

Q: For “TCGTGACTGTTCAGATTTGTGGTATTAGGATATGTTATATCGGAGTCACCTAGTGCAG”, which binding signal is on record?
A: Its binding signal is 10400 fluorescence intensity (a.u.).

Q: How did the binding signal turn out when “AAGACTGGCATTACAATTAATCAATCTTAACCCACAGCATCGGAGTCACCTAGTGCAG” was run?
A: Its binding signal is 26100 fluorescence intensity (a.u.).

Q: How did the binding signal turn out when “TTCCGGACGTGTGATTGCGATGAGACGTGTTGCAATATCCCGGAGTCACCTAGTGCAG” was run?
A: Its binding signal is 7260 fluorescence intensity (a.u.).

Q: Which binding signal does the source give for “ATTTTCAGACAATTATTGGCACCACCAGCCTCATCAACGGCGGAGTCACCTAGTGCAG” here?
A: The binding signal was 3670 fluorescence intensity (a.u.).

Q: With “CATGATGTAGATTTGTAGCTAGCTATAGCACAGACTCCAACGGAGTCACCTAGTGCAG” as the sequence, how does the binding signal read?
A: The binding signal was 3760 fluorescence intensity (a.u.).

Q: “TCAAATTTTATTCGTAAAGTTGACTGCAATAGTTTTGTATCGGAGTCACCTAGTGCAG” was tested. Which binding signal did it give?
A: The binding signal was 3460 fluorescence intensity (a.u.).

Q: “CCCTAATTTTGCAGAACTTTTGGATGGGATTTAAATTCTCCGGAGTCACCTAGTGCAG” was tested. Which binding signal did it give?
A: The binding signal was 12100 fluorescence intensity (a.u.).

Q: “GATGGTGCTAATTTGAGAGTTCAACTGACATATCTACCAACGGAGTCACCTAGTGCAG” was tested. Which binding signal did it give?
A: Its binding signal is 3510 fluorescence intensity (a.u.).

Q: “GTACGGAAATTTCCAAAGATTAGCTGAAAATTTTGAAGTACGGAGTCACCTAGTGCAG” was tested. Which binding signal did it give?
A: Its binding signal is 4440 fluorescence intensity (a.u.).

Q: Which binding signal does the source give for “GTGGTATTAACGTATAATTAATTGAGTTTTAATTATTACACGGAGTCACCTAGTGCAG” here?
A: The binding signal was 24000 fluorescence intensity (a.u.).

Q: Which binding signal does the source give for “AATTAATGGCAGAATTTACCGATAATGGCCGTCTTTAGATCGGAGTCACCTAGTGCAG” here?
A: The binding signal was 6100 fluorescence intensity (a.u.).

Q: For “CCTAGCAAATTGATCCCTTTCAAGAAAGCCCTGTTTGAACCGGAGTCACCTAGTGCAG”, which binding signal is on record?
A: Its binding signal is 4960 fluorescence intensity (a.u.).

Q: “TATGATTTATAAATTAATGGATTTAAAGTTTTAAGTTAATCGGAGTCACCTAGTGCAG” was tested. Which binding signal did it give?
A: The binding signal was 43900 fluorescence intensity (a.u.).

Q: With “CAGAATCTATAATTTGTTTTGTTATTAGACTATGTTATATCGGAGTCACCTAGTGCAG” as the sequence, how does the binding signal read?
A: Its binding signal is 6000 fluorescence intensity (a.u.).

Q: How did the binding signal turn out when “ACTATAGTAATTTGTCTCAGACAATTGGTAAAGATTGTGGCGGAGTCACCTAGTGCAG” was run?
A: Its binding signal is 8100 fluorescence intensity (a.u.).

Q: Which binding signal does the source give for “TATCAAATCTGATTTGGTAGATTTATTTAAGGATTTTCATCGGAGTCACCTAGTGCAG” here?
A: The binding signal was 3240 fluorescence intensity (a.u.).

Q: For “ACCATCATCAATTGATAGTTCTTGTTTCTCTAGTAGTAAGCGGAGTCACCTAGTGCAG”, which binding signal is on record?
A: Its binding signal is 9360 fluorescence intensity (a.u.).

Q: For “TGGACAACAATTCTTGATTGAATTTAATTAACGGATAACGCGGAGTCACCTAGTGCAG”, which binding signal is on record?
A: Its binding signal is 28000 fluorescence intensity (a.u.).

Q: “AGCTAATAATTACTAATTACTAAGTAATACTTCCTCTGTTCGGAGTCACCTAGTGCAG” was tested. Which binding signal did it give?
A: Its binding signal is 41700 fluorescence intensity (a.u.).

Q: Which binding signal does the source give for “AATATGATTGGATCGAGAAGCTCGTTGGCTCCTTTATCCACGGAGTCACCTAGTGCAG” here?
A: Its binding signal is 42500 fluorescence intensity (a.u.).

Q: How did the binding signal turn out when “CGACGACTCAATTCATTTATTATAATAAATGAATTAACCCCGGAGTCACCTAGTGCAG” was run?
A: Its binding signal is 7030 fluorescence intensity (a.u.).

Q: “TGAATTTTACAAAATCAACATCCAATCATTTTCATTCACACGGAGTCACCTAGTGCAG” was tested. Which binding signal did it give?
A: The binding signal was 6080 fluorescence intensity (a.u.).

Q: Which binding signal does the source give for “TCAAAGTGATTGGTGACACTCTACACAACACACAGTTGAACGGAGTCACCTAGTGCAG” here?
A: Its binding signal is 28400 fluorescence intensity (a.u.).

Q: With “AACTAGTTAGGCTCCTTATGATTGAATCTGTTTACCCGGACGGAGTCACCTAGTGCAG” as the sequence, how does the binding signal read?
A: The binding signal was 14100 fluorescence intensity (a.u.).

Q: Which binding signal does the source give for “AAATAACAAATTTGACTGTGAATATACGTATACTAGTTAGCGGAGTCACCTAGTGCAG” here?
A: Its binding signal is 19300 fluorescence intensity (a.u.).

Q: For “CAATATTGATTTTGTCTAATAAGTAGTTATTGAACTGAGTCGGAGTCACCTAGTGCAG”, which binding signal is on record?
A: The binding signal was 35800 fluorescence intensity (a.u.).

Q: How did the binding signal turn out when “ACTGCATCAAAATTAGATTTTACAACTACTCCCTCCGTCTCGGAGTCACCTAGTGCAG” was run?
A: The binding signal was 3160 fluorescence intensity (a.u.).

Q: How did the binding signal turn out when “CCCCACATGATTTGGATGGATCCCTTGATCCGATCACGAACGGAGTCACCTAGTGCAG” was run?
A: The binding signal was 9660 ± 457 fluorescence intensity (a.u.).

Q: How did the binding signal turn out when “CTAGATTTAACTTTTAGTCTCATTTGATAGGACTCCAACTCGGAGTCACCTAGTGCAG” was run?
A: Its binding signal is 11100 fluorescence intensity (a.u.).

Q: For “TTTACCCACATTGTTTTGATTGCTAATAAACCGTTACGACCGGAGTCACCTAGTGCAG”, which binding signal is on record?
A: The binding signal was 8300 fluorescence intensity (a.u.).

Q: With “ATTTAATTAGTGGATAGAATTTAGGTGCACCAAATGCTGGCGGAGTCACCTAGTGCAG” as the sequence, how does the binding signal read?
A: The binding signal was 43000 fluorescence intensity (a.u.).

Q: How did the binding signal turn out when “TTAATTATACTATAATATACTACCTCAATGCATGAATGTACGGAGTCACCTAGTGCAG” was run?
A: The binding signal was 9580 fluorescence intensity (a.u.).

Q: “AGTCAATTTATTGGTGAATTAGAATCTACGGAAAAGGGGACGGAGTCACCTAGTGCAG” was tested. Which binding signal did it give?
A: The binding signal was 15400 fluorescence intensity (a.u.).

Q: Which binding signal does the source give for “TTAGATTGGGACAGTACGTAGGAATTGGTTGATTTCCGGGCGGAGTCACCTAGTGCAG” here?
A: The binding signal was 16300 fluorescence intensity (a.u.).

Q: “GGTTGTGTTCTTGTTGGCGAGGAGGAGAGAGGGGTGGGGTCGGAGTCACCTAGTGCAG” was tested. Which binding signal did it give?
A: The binding signal was 4540 fluorescence intensity (a.u.).

Q: For “AGTCAATCGTGCCAGTCTGACTCGAATCGTCGGTCGTTCTCGGAGTCACCTAGTGCAG”, which binding signal is on record?
A: Its binding signal is 3400 fluorescence intensity (a.u.).

Q: With “AATAAATCATATGCATAATAAGCGAAACAATGGGCTGTCGCGGAGTCACCTAGTGCAG” as the sequence, how does the binding signal read?
A: Its binding signal is 4910 fluorescence intensity (a.u.).
